Laboratory results taken from patent US20220401386A1, “USE OF NITRIC OXIDE SYNTHASE PATHWAY INHIBITOR IN PERPARATION OF MEDICINE” (ZHUJIANG HOSPITAL, SOUTHERN MEDICAL UNIVERSITY, priority 2019, published 2022).

System: mouse middle cerebral artery occlusion (MCAO) model
Test: Brain injury in cerebral ischemic stroke, TTC staining, cerebral injury volume
Format: in vivo, mice

[H]/N=C(\C)NCc1cccc(CN)c1 [1400W]
degree of injury in the cerebral ischemic stroke (mouse, in vivo): alleviates

[H]/N=C(/C)NCCCC[C@H](N)C(=O)O [L-NIL]
degree of injury in the cerebral ischemic stroke (mouse, in vivo): alleviates

Cc1ccnc(N)c1 [2-amino-4-methylpyridine (AMP), 2-amino-4-methylpyridine]
degree of injury in the cerebral ischemic stroke (MCAO mice, 0.01-1000 mg/kg gavage once 1 hour after stroke, compared to MCAO group without intervention): alleviates

N=C(N)NN [aminoguanidine (AG), aminoguanidine]
degree of cerebral injury, time effect (25 mg/kg gavage once at 1-12 h after stroke, detected 24 hours after stroke, FIGS. 12A-12B): significantly reduce
degree of injury of cerebral ischemic stroke (AG before modeling (1 mg/ml drinking water, 5 days) or after modeling (100 mg/kg gavage once, 1 hour after stroke), vs MCAO group without intervention, FIG. 8): significantly alleviated
cerebral injury, dose effect (different doses 25-200 mg/kg, gavage once at first hour after stroke, detected 24 hours after stroke, FIGS. 12A-12B): significantly reduce
